Experimental data taken from the RNAGym collection of RNA variant scans (doi:10.7554/elife.90254).
Read counts are not given, so values of variants with three or more changes are uncertain.

B1: LINE1-mini (parent)
chain: GGCAGAGCUCAACACAGCGUGGCAAAGUGGCUGUGGCUAGACUGCC

Variants of: B1
Experiment: self-cleavage, relative activity (ratio to wild type); higher = more cleavage; in vitro, sequencing; the parent is a self-cleaving ribozyme

Variant	self-cleavage
GGCAGAGCUCAACACAGCCCGGCAUAGUGGCUGUUGCUAGACUGCC	0.01
GGCAGAGCUCAACACAGCUUGGAUAAGUGGCCAUGGCUAGACUGCC	0.04
GGCAGAGCUCAACACAGCCUGGCAAAGUGCCUGUGGCUAGAGUGCC	0.05
GGCAGAGCUCAACACAGCCUGCCAAAGUGGCUGUGACUAGACUGCC	0.06
GGCAGAGCUCAACACAGCCUGGCAAAGUGGCUGGGGCUAGACUGGA	0.08
GGCAGAGCUCAACACAGCCUGGCAAAGUGGCUCUGACUAGACUGCC	0.06
GGCAGAGCUCAACACAGCUUGGUAAAGUCGCUGUGGCUAGACUGCC	0.77
GGCAGAGCUCAACACAGCCCGGCAAAAUGGCUGUGGUUAGACUGCC	0.02
GGCAGAGCUCAACACAGCUUGGUAAAGUGGCUGUGGCUACACUACC	0.12
GGCAGAGCUCAACACAGCUUGGCCAAGUGGCUGUGGCUACACUGCC	0.11
GGCAGAGCUCAACACAGCUUGGCAACUUGGCUGUGGCUAGACUGCC	0.2
GGCAGAGCUCAACACAGCUUGGCACAGUGGCUGUGGGUAUACUGCC	0.1
GGCAGAGCUCAACACAGCCUCGCAAAGUGGCUGUGGCAAGACUGCC	0.04
GGCAGAGCUCAACACAGCUUGGCGAAGUCGCUCUGGCGAGACUGCC	0.07
GGCAGAGCUCAACACAGCUUGGCAAAGUGGAUGUGGCUAAACUGCC	0.01
GGCAGAGCUCAACACAGCCAAGCAAAGUGGCUGUGGAUAGACUGCC	0.01
GGCAGAGCUCAACACAGCCUUGCCAAGUGGCUGUGGCUAGACUGCC	0.27
GGCAGAGCUCAACACAGCCUGGCAAAGUUGCUGUGGCUAGACUGCU	1.19
GGCAGAGCUCAACACAGCUUGGCAAAGUGGAUGUGGGUAGACUGCC	0.01

Variant	self-cleavage
GGCAGAGCUCAACACAGCUUGGCAAAGUGGAUGUGGUUAGACUGCC	0.04
GGCAGAGCUCAACACAGCCUGGCAAAGUGGCUGUGAAUAGACUGUU	0.08
GGCAGAGCUCAACACAGCCUGUCAAAGUGGCUGUGGCUAGAAUGCC	0.05
GGCAGAGCUCAACACAGCCUGGCAAAGUGGCUGUAGCUAUACUGCC	0.1
GGCAGAGCUCAACACAGCCCGGCAAAGUGGCUGUGGCUAGACUGAC	0.61
GGCAGAGCUCAACACAGCCCGGCAAAGUGGCUGUGGCUAGACUGGC	0.07
GGCAGAGCUCAACACAGCCUGGGCAAGCGGCUGUAGCUAGACUGCC	0.19
GGCAGAGCUCAACACAGCCUCGCAAAGUGGAUGUUGCUAGACUGCC	0.03
GGCAGAGCUCAACACAGCCUGGCAAAGAUGCUGUGGCUAGGCUGCC	0.08
GGCAGAGCUCAACACAGCCUGGCAAAGUUUCUGUGGCUAGACUGCC	0.81
GGCAGAGCUCAACACAGCUUGGCAAAGUGGCUGUGGCUAGGCUGAC	0.03
GGCAGAGCUCAACACAGCCUGGCAAAGUUGCGGUUGCUAGACUGCC	0.03
GGCAGAGCUCAACACAGCCCGCCAAAGUGGCUGUGGCUAGACUGCC	0.22
GGCAGAGCUCAACACAGCCUGGCAAAGUGGCUGUGACGAGACUGCC	0.02
GGCAGAGCUCAACACAGCCUGGCAAAGGGGCUGUUGCUAGACUGCC	0.01
GGCAGAGCUCAACACAGCCUGUUAAAGUGGCUGCGGCUAGACUAAC	0.09
GGCAGAGCUCAACACAGCCAGGAAAAGUUGCUGUGGCUAGACUGCC	0.07
GGCAGAGCUCAACACAGCCUGGCAAAGUGGCUAUGGCGAGACUACC	0.01
GGCAGAGCUCAACACAGCCUGACAAAGUGGCUGUGGCUGGACUGCC	0.05

Variant	self-cleavage
GGCAGAGCUCAACACAGCCUGCCGAAGUGGCUGUGGCUAGACUGCC	0.39
GGCAGAGCUCAACACAGCUUGGCAAAGUGGCUGUGGCUAGUGCGCC	0
GGCAGAGCUCAACACAGCCUGGCAAAGUGGCAGGGGCUAGACUGCC	0
GGCAGAGCUCAACACAGCCUGAAAAAGUGACUGUGGCUAGACUGCC	2.77
GGCAGAGCUCAACACAGCCAGGCAAACUGGGGGUGGCUAGACCGCC	0.02
GGCAGAGCUCAACACAGCCUGGCAAAGUCGCUGUGGCUCGACUGCC	0.18
GGCAGAGCUCAACACAGCCUGGCAAAGUGGCUGGGGCUACACUGCC	0.01
GGCAGAGCUCAACACAGCUUGGCCAAGUGGCUGUUGCUAGAGUGCC	0.04
GGCAGAGCUCAACACAGCCAAGCAAAGUGGCUGUGGCUAGACUGCC	0.54
GGCAGAGCUCAACACAGCCUGGCAAAUUGGCUGUGGCUAUCCUGUC	0.07
GGCAGAGCUCAACACAGCCUGGCAAAGUGGCUGUGGGUAGAGUGCC	0.06
GGCAGAGCUCAACACAGCCUGGCAAAGUGGAUGUGGCUAGACUACC	0.09
GGCAGAGCUCAACACAGCUUGGUAAAGUGGCUGUGGGUACACUGCC	0.02
GGCAGAGCUCAACACAGCCUGGCAAACUGGCUCUGGCUAGACUGCC	0.18
GGCAGAGCUCAACACAGCCUGGUAAAGUGGCUGUUGCUAGAGUGCC	0.03
GGCAGAGCUCAACACAGCUUGGUAAAGUGGCUUUGGCUGGACUGCC	0.07
GGCAGAGCUCAACACAGCUUGGCAACGUGGCUGUGGCUAGAUUGUC	0.17
GGCAGAGCUCAACACAGCUUGGCUAAGUGGCUGUGACUAGACUGCC	0.27
